# Out of some 39,000 compounds screened, about 220 (0.56%) showed activity. The list shows a part of the results.
# Tested on: Escherichia coli K-12 BW25113
# Assay: relative growth (OD600 normalised to plate interquartile mean) (fraction); higher = less growth inhibition, active = 0.2 or less
# Details: 50 µM; LB; incubation time: overnight (16-24 h)
# 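Also: static incubation at 37 °C against the wild-type strain, values averaged over two biological replicates.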
row,SMILES,relative growth
1,CC(C)NC(=O)N(C)C[C@@H]1OCc2cnnn2CCCC(=O)N([C@H](C)CO)C[C@@H]1C,inactive: 0.996
2,COCC(=O)Nc1ccc2c(c1)C(=O)N(C)C[C@H](OC)[C@@H](C)CN(Cc1ccccc1OC)[C@@H](C)CO2,inactive: 1
3,Cc1noc(C)c1S(=O)(=O)N(C)C[C@H]1Oc2ccc(NC(=O)NC(C)C)cc2CC(=O)N([C@@H](C)CO)C[C@@H]1C,inactive: 1.02
4,C[C@@H]1CN([C@H](C)CO)C(=O)c2c(c3ccccc3n2C)-c2ccccc2CO[C@H]1CN(C)C(=O)Nc1ccc2c(c1)OCO2,inactive: 1.01
5,C[C@@H]1CN([C@@H](C)CO)C(=O)c2cccc(NC(=O)CCCCCC(=O)Nc3ccccc3N)c2O[C@H]1CN(C)S(C)(=O)=O,inactive: 0.99
6,COc1ccc(-c2cnc3c(c2)C(=O)N([C@@H](C)CO)C[C@@H](C)[C@@H](CN(C)C(=O)C2CCOCC2)O3)cc1,inactive: 1.02
7,O=C(C[C@H]1C=C[C@H](NC(=O)c2cccc(F)c2)[C@@H](CO)O1)NCCN1CCCC1,inactive: 1.01
8,CC(C)NC(=O)Nc1cccc2c1O[C@H](CN(C)S(=O)(=O)c1cn(C)cn1)[C@@H](C)CN([C@@H](C)CO)C2=O,inactive: 0.991
9,COc1cc([C@@H](O)C(=O)O)ccc1O,inactive: 0.972
10,C[C@H]1CN([C@@H](C)CO)C(=O)c2cccc(NS(=O)(=O)c3ccccc3)c2O[C@@H]1CN(C)Cc1ccc(-c2ccccc2)cc1,inactive: 1.02
11,CC=Cc1ccc2n(c1=O)C[C@H]1[C@H](CO)[C@@H](C(=O)NCC)[C@@H]2N1S(=O)(=O)c1cn(C)cn1,inactive: 0.991
12,Cc1noc(C)c1NC(=O)Nc1ccc2c(c1)C(=O)N([C@@H](C)CO)C[C@H](C)[C@H](CN(C)C(=O)C1CCCCC1)OCCCC[C@H](C)O2,inactive: 1.03
13,C[C@@H]1CN([C@@H](C)CO)S(=O)(=O)c2ccc(C#Cc3ccccc3F)cc2O[C@@H]1CN(C)CC1CC1,inactive: 0.993
14,CCOC(=O)[C@@](C)(N)Cc1ccc(O)c(O)c1,inactive: 1.01
15,Cl.c1ccc(C2CN3CCSC3=N2)cc1 (centres undefined),inactive: 1.03
16,C[C@H]1CN([C@@H](C)CO)S(=O)(=O)c2ccc(C#Cc3ccc(F)cc3)cc2O[C@@H]1CN(C)S(=O)(=O)c1cn(C)cn1,inactive: 1.04
17,CO[C@H]1CN(C)C(=O)c2cc(NC(=O)Nc3cccc(F)c3)ccc2OC[C@@H](C)N(C(=O)Nc2c(C)noc2C)C[C@H]1C,inactive: 0.978
18,Cc1noc(C)c1S(=O)(=O)Nc1cccc2c1O[C@H](CN(C)C(=O)Nc1ccc3c(c1)OCO3)[C@H](C)CN([C@H](C)CO)C2=O,inactive: 1.01
19,O=C(C[C@@H]1CC[C@@H]2[C@H](COC[C@H](O)CN2C(=O)c2ccc3c(c2)OCO3)O1)NCCN1CCCCC1,inactive: 0.991
20,O=C(C[C@H]1C[C@H]2c3cc(NC(=O)Cc4ccncc4)ccc3O[C@H]2[C@@H](CO)O1)NCCc1ccccc1,inactive: 1.02

row,SMILES,relative growth
1,Cc1noc(C)c1NC(=O)Nc1ccc2c(c1)CC(=O)N([C@H](C)CO)C[C@H](C)[C@H](CN(C)C(=O)Nc1ccc(C(F)(F)F)cc1)O2,inactive: 0.986
2,CSc1nc(C)cc(NC(N)=O)n1,inactive: 0.972
3,C[C@@H]1CN([C@@H](C)CO)C(=O)Cc2cc(NS(=O)(=O)c3cn(C)cn3)ccc2O[C@@H]1CN(C)S(=O)(=O)c1cn(C)cn1,inactive: 1.05
4,C[C@@H]1CN([C@H](C)CO)C(=O)c2cc(NC(=O)CCC(F)(F)F)ccc2O[C@@H](C)CCCCO[C@H]1CN(C)Cc1ccc(Cl)c(Cl)c1,inactive: 0.936
5,C[C@H]1CCCCO[C@@H](CN(C)C(=O)Nc2ccccc2)[C@@H](C)CN([C@@H](C)CO)C(=O)c2cc(NC(=O)C3CCCCC3)ccc2O1,inactive: 1.04
6,COc1cc(-c2coc3cc(O[C@@H]4O[C@H](CO)[C@@H](O)[C@H](O)[C@H]4O)c(OC)c(O)c3c2=O)cc(O)c1OC,inactive: 1.02
7,CCCNC(=O)[C@@]1(Sc2ccc(C)cc2)CC(=O)N(C2CCCCC2)[C@@H]1c1ccc(CO)cc1I,inactive: 0.968
8,CC(C)NC(=O)Nc1ccc2c(c1)C(=O)N([C@H](C)CO)C[C@@H](C)[C@@H](CN(C)Cc1ccccc1)OCCCC[C@@H](C)O2,inactive: 1.04
9,COc1ccc(S(=O)(=O)N(C)C[C@H]2Oc3ccc(NS(=O)(=O)c4ccccc4)cc3C(=O)N([C@H](C)CO)C[C@H]2C)cc1,inactive: 1.03
10,COc1ccc(S(=O)(=O)N(C)C[C@@H]2Oc3ccc(NC(=O)Nc4cccc(C(F)(F)F)c4)cc3CC(=O)N([C@@H](C)CO)C[C@@H]2C)cc1Cl,inactive: 0.997
11,Cc1noc(C)c1NC(=O)Nc1ccc2c(c1)C(=O)N([C@H](C)CO)C[C@@H](C)[C@@H](CN(C)C(=O)Nc1ccc3c(c1)OCO3)OCCCC[C@@H](C)O2,inactive: 0.978
12,COc1ccccc1S(=O)(=O)N[C@H]1CC[C@H](CCNC(=O)C2CC2)O[C@@H]1CO,inactive: 1.01
13,CC(C)C#Cc1ccc2c(c1)O[C@H](CN(C)C(=O)c1cccc(F)c1)[C@@H](C)CN([C@@H](C)CO)S2(=O)=O,inactive: 0.976
14,Cc1cc(C(=O)Nc2cccc3c2O[C@@H](CN(C)S(=O)(=O)c2ccc(F)cc2)[C@@H](C)CN([C@@H](C)CO)C3=O)n(C)n1,inactive: 1.02
15,C[C@@H]1CN([C@H](C)CO)C(=O)c2cc(C#CC(C)(C)O)cnc2O[C@H]1CN(C)Cc1cccc(C(=O)O)c1,inactive: 1.01
16,COC(=O)[C@H](Cc1ccccc1)NC(=O)[C@@H](N)CC(=O)O,inactive: 0.989
17,COc1ccc(S(=O)(=O)N(C)C[C@H]2OCc3cnnn3CCCC(=O)N([C@@H](C)CO)C[C@@H]2C)cc1,inactive: 1.02
18,C=CCn1c(=O)n([C@H]2O[C@@H](CO)[C@@H](O)[C@@H]2O)c2[nH]c(N)nc(=O)c21,inactive: 0.989
19,C[C@@H]1CN([C@H](C)CO)C(=O)c2cc(NC(=O)Cn3cnnn3)ccc2O[C@@H]1CN(C)Cc1ccc(-c2ccccc2)cc1,inactive: 1

# From the supplement of paper PMC9446081
